Part of at least one peptide drawing is inferred or uncertain, most often the ends. At least one compound was matched to its structure with a doubt left. Starred links: 1 amine or outer side, 2 acyl side, 3 side chain; linkers in the order of their positions; H or OH if unused. Positions of bridges follow the written chain, without caps; N, C: chain ends. Non-standard residues stand in square brackets, D forms with d. Residues, ends and D or L forms follow the SMILES beside them. Groups on a side chain read outwards from the residue. *: point of attachment. Me3N+(CH2)2O(CH2)2O(CH2)2CO = C[N+](C)(C)CCOCCOCCC(=O)*; X21 = NC(=O)c1cccc2cc(C[C@H](N[*:1])C(=O)[*:2])ccc12; X14 = COc1cccc2cc(C[C@H](N[*:1])C(=O)[*:2])ccc12; X8 = O=C([C@H](Cc1ccc2c(Br)cccc2c1)N[*:1])[*:2]; 2Nal(6-OH) = N[C@@H](Cc1ccc2cc(O)ccc2c1)C(=O)O; Trp(7-Me) = Cc1cccc2c(C[C@H](N)C(=O)O)c[nH]c12; X13 = NC(=O)c1cncc(C[C@H](N[*:1])C(=O)[*:2])c1; X17 = NC(=O)c1n[nH]cc1C[C@H](N[*:1])C(=O)[*:2]; AEF = NCCOc1ccc(C[C@H](N)C(=O)O)cc1; X23 = C[N+](C)(C)C[C@H](CC(=O)O)N*; αMeF = C[C@](N)(Cc1ccccc1)C(=O)O; 3Pal = N[C@@H](Cc1cccnc1)C(=O)O; Pen = CC(C)(S)[C@H](N)C(=O)O; Suc = O=C(CCC(=O)[*:2])[*:1]; Thp = NC1(C(=O)O)CCOCC1; X16 = C[N+]1(CC*)CCOCC1; Ahp = NCCCCCCC(=O)O; Sar = CNCC(=O)O
Assays:
[1] = target: T1, IL-23-stimulated phosphorylated STAT3 in peripheral blood mononuclear cells (PBMCs) (Homo sapiens, UniProt Q5VWK5); test: PBMC pSTAT3 Assay; assay type: cell-based; details: PBMCs from healthy donors, IL-23 5 ng/mL, 30 minutes
T1 sequence (Q5VWK5 24-629): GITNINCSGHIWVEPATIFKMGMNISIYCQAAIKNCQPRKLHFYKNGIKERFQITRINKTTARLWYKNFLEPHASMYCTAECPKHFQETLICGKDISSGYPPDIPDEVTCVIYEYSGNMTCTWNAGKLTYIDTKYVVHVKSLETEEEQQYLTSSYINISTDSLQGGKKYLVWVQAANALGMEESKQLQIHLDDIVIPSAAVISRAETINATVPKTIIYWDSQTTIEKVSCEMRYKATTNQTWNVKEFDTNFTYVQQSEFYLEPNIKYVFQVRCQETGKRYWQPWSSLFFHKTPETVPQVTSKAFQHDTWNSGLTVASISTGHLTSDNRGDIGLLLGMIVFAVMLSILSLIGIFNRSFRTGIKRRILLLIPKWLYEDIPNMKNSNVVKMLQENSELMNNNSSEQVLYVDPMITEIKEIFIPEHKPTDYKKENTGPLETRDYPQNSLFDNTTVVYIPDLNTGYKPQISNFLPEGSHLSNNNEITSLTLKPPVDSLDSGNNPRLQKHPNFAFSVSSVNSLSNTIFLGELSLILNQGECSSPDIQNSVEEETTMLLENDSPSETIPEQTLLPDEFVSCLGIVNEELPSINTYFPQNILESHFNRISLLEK
Description: Cryopreserved peripheral blood mononuclear cells (PBMCs) from healthy donors were thawed and washed twice in ImmunoCult-XF T cell expansion medium (XF-TCEM) supplemented with CTL anti-aggregate wash. The cells were counted, resuspended at 2-6×10^5 cells per mL XF-TCEM supplemented with penicillin/streptomycin and 100 ng/mL IL-1β (BioLegend, 579404), and cultured in tissue culture flasks coated with anti-CD3 (eBioscience, 16-0037-85 or BD Pharmingen, 555329) at 37° C. in 5% CO2. On day 4 of culture, PBMCs were collected, washed twice in RPMI-1640 supplemented with 0.1% BSA (RPMI-BSA), and incubated in RPMI-BSA in upright tissue culture flasks for ˜4 hours at 37° C. in 5% CO2. Following this ‘starvation,’ a total of 6×10^4 cells in 30 μL RPMI-BSA was transferred into each well of a 384-well plate pre-spotted with peptide or DMSO. The cells were incubated for 30 minutes prior to the addition of IL-23 at a final concentration of 5 ng/mL. The cells were stimulated with cytokine for 30 minutes at 37° C. in 5% CO2, transferred onto ice for 10 minutes, and lysed. Cell lysates were stored at −80° C. until phosphorylated STAT3 was measured using the phospho-STAT panel kit (Meso Scale Discovery, K15202D).

IL-23R = target: T2, IL-23R (Homo sapiens, UniProt Q5VWK5); test: IL23R Reporter Assay; assay type: cell-based; details: HEK293 cells containing IL-23R, IL-12Rβ1 and STAT-inducible luciferase reporter; 10 ng/mL IL-23; 5 h
T2 construct: host or cells: HEK293
T2 sequence (Q5VWK5 24-629): T1 sequence (Q5VWK5 24-629)
Description: Compounds were serially diluted in 100% (v/v) DMSO) and plated using an Echo acoustic dispenser (Labcyte) into 1536-well non-treated black assay plates (Corning #9146). […] After 5 h at 37° C., 5% CO2, 95% relative humidity, cells were placed at 20° C. and treated with BioGlo reagent (Promega) according to the Manufacturer's instructions. Luminescence was measured on a Pherastar FSX (BMG LabTech).

Row | IC50 [1] [nM] | IC50 (IL-23R) [nM] | Compound
1 | < 0.01 | < 10 | CC(=O)NCCCC[C@@H]1NC(=O)[C@H](Cc2c[nH]c3c(C)cccc23)NC(=O)[C@H]([C@@H](C)O)NC(=O)[C@H](CC(N)=O)NC(=O)[C@@H](NC(C)=O)C(C)(C)SSC(C)(C)[C@@H](C(=O)N[C@@H](Cc2ccc(OCC[N+]3(C)CCOCC3)cc2)C(=O)N[C@@H](Cc2ccc3cc(O)ccc3c2)C(=O)NC2(C(=O)N[C@@H](CCC(=O)O)C(=O)N[C@@H](CC(N)=O)C(=O)N[C@@H](Cc3cccnc3)C(=O)N(C)CC(N)=O)CCOCC2)NC1=O [compound 56] (Ac-[Pen]NT[Trp(7-Me)]K(Ac)[Pen]Y(X16)[2Nal(6-OH)][Thp]EN[3Pal][Sar]-NH2; disulfide 1-6; N-terminus and C-terminus assumed)
2 | < 0.01 | < 10 | CC(=O)NCCCC[C@@H]1NC(=O)[C@H](Cc2c[nH]c3c(C)cccc23)NC(=O)[C@H]([C@@H](C)O)NC(=O)[C@@H]2CCC(=O)NCCOc3ccc(cc3)C[C@@H](C(=O)N[C@@H](Cc3ccc4cc(O)ccc4c3)C(=O)NC3(C(=O)N[C@@H](CCCCNC(C)=O)C(=O)N[C@@H](CC(N)=O)C(=O)N[C@@H](Cc4cccnc4)C(=O)N(C)CC(N)=O)CCOCC3)NC(=O)[C@@H](NC1=O)C(C)(C)SSC(C)(C)[C@H](NC(=O)[C@@H](CCCCNC(=O)CCC(=O)N[C@@H](CC(=O)O)C[N+](C)(C)C)NC(C)=O)C(=O)N2 [compound 133, MeCO-k(d)-Pen(3)-E(2)-T-7MeW-K(Ac)-Pen(3)-AEF(2)-6OH2Nal-THP-K(Ac)-N-3Pya-Sar-CONH2] (Ac-[dK]([Suc-X23])[Pen]ET[Trp(7-Me)]K(Ac)[Pen][AEF][2Nal(6-OH)][Thp]K(Ac)N[3Pal][Sar]-NH2; disulfide 2-7; lactam 3-8)
3 | 0.01 to 0.1 | < 10 | CC(=O)NCCCC[C@@H]1NC(=O)[C@H](Cc2c[nH]c3c(C)cccc23)NC(=O)[C@H]([C@@H](C)O)NC(=O)[C@H](CC(N)=O)NC(=O)[C@@H](NC(C)=O)C(C)(C)SSC(C)(C)[C@@H](C(=O)N[C@@H](Cc2ccc(OCCN)cc2)C(=O)N[C@@H](Cc2ccc3nc(O)ccc3c2)C(=O)NC2(C(=O)N[C@@H](CCC(=O)O)C(=O)N[C@@H](CC(N)=O)C(=O)N[C@@H](Cc3cccnc3)C(=O)N(C)CC(N)=O)CCOCC2)NC1=O [compound 149]
4 | < 0.01 | < 10 | CC(=O)NCCCC[C@@H]1NC(=O)[C@H](Cc2c[nH]c3c(C)cccc23)NC(=O)[C@H]([C@@H](C)O)NC(=O)[C@@H]2CCC(=O)NCCOc3ccc(cc3)C[C@@H](C(=O)N[C@@H](Cc3ccc4cc(O)ccc4c3)C(=O)NC3(C(=O)N[C@@H](CCCCNC(C)=O)C(=O)N[C@@H](CC(N)=O)C(=O)N[C@@H](Cc4cccnc4)C(=O)N(C)CC(N)=O)CCOCC3)NC(=O)[C@@H](NC1=O)C(C)(C)SSC(C)(C)[C@H](NC(=O)CCOCCOCC[N+](C)(C)C)C(=O)N2 [compound 364, cPEG3aCO-Pen(3)-E(2)-T-7MeW-K(Ac)-Pen(3)-AEF(2)-6OH2Nal-THP-K(Ac)-N-3Pya-Sar-CONH2] ({Me3N+(CH2)2O(CH2)2O(CH2)2CO}-[Pen]ET[Trp(7-Me)]K(Ac)[Pen][AEF][2Nal(6-OH)][Thp]K(Ac)N[3Pal][Sar]-NH2; disulfide 1-6; lactam 2-7; N-terminus and C-terminus assumed)
5 | < 0.01 | < 10 | CC(=O)NCCCC[C@@H]1NC(=O)[C@H](Cc2c[nH]c3c(C)cccc23)NC(=O)[C@H]([C@@H](C)O)NC(=O)[C@H](CC(N)=O)NC(=O)[C@H]2NC(=O)CCCCCCNC(=O)CC[C@@H](C(=O)N[C@@H](CC(N)=O)C(=O)N[C@@H](Cc3cccnc3)C(=O)N(C)CC(N)=O)NC(=O)C3(CCOCC3)NC(=O)[C@H](Cc3ccc4cc(O)ccc4c3)NC(=O)[C@H](Cc3ccc(OCCN)cc3)NC(=O)[C@@H](NC1=O)C(C)(C)SSC2(C)C [compound 417] ([Ahp][Pen]NT[Trp(7-Me)]K(Ac)[Pen][AEF][2Nal(6-OH)][Thp]EN[3Pal][Sar]-NH2; disulfide 2-7; lactam N-11)
6 | > 1 | > 100 | COc1cccc2cc(C[C@H](NC(=O)[C@H](Cc3ccc(OCCN)cc3)NC(=O)[C@H]3NC(=O)[C@H](CCCCNC(C)=O)NC(=O)[C@H](Cc4c[nH]c5c(C)cccc45)NC(=O)[C@H]([C@@H](C)O)NC(=O)[C@H](CC(N)=O)NC(=O)[C@@H](NC(=O)[C@@H](CCCNC(=N)N)NC(C)=O)C(C)(C)SSC3(C)C)C(=O)NC3(C(=O)N[C@@H](CCC(=O)O)C(=O)N[C@@H](CC(N)=O)C(=O)N[C@@](C)(Cc4ccccc4)C(N)=O)CCOCC3)ccc12 [compound 437] (Ac-[dR][Pen]NT[Trp(7-Me)]K(Ac)[Pen][AEF][X14][Thp]EN[αMeF]-NH2; disulfide 2-7; N-terminus and C-terminus assumed)
7 | 0.1 to 1 | > 100 | CC(=O)NCCCC[C@@H]1NC(=O)[C@H](Cc2c[nH]c3c(C)cccc23)NC(=O)[C@H]([C@@H](C)O)NC(=O)[C@H](CC(N)=O)NC(=O)[C@@H](NC(=O)[C@@H](CCCNC(=N)N)NC(C)=O)C(C)(C)SSC(C)(C)[C@@H](C(=O)N[C@@H](Cc2ccc(OCCN)cc2)C(=O)N[C@@H](Cc2ccc3c(C(N)=O)cccc3c2)C(=O)NC2(C(=O)N[C@@H](CCC(=O)O)C(=O)N[C@@H](CC(N)=O)C(=O)N[C@@](C)(Cc3ccccc3)C(N)=O)CCOCC2)NC1=O [compound 439] (Ac-[dR][Pen]NT[Trp(7-Me)]K(Ac)[Pen][AEF][X21][Thp]EN[αMeF]-NH2; disulfide 2-7; N-terminus and C-terminus assumed)
8 | > 1 | 10 to 100 | CC(=O)NCCCC[C@@H]1NC(=O)[C@H](Cc2c[nH]c3c(C)cccc23)NC(=O)[C@H]([C@@H](C)O)NC(=O)[C@H](CC(N)=O)NC(=O)[C@@H](NC(=O)[C@@H](CCCNC(=N)N)NC(C)=O)C(C)(C)SSC(C)(C)[C@@H](C(=O)N[C@@H](Cc2ccc(OCCN)cc2)C(=O)N[C@@H](Cc2ccc3cc(O)ccc3c2)C(=O)NC2(C(=O)N[C@@H](CCC(=O)O)C(=O)N[C@@H](CC(N)=O)C(=O)N[C@@H](Cc3c[nH]nc3C(N)=O)C(=O)N(C)CC(N)=O)CCOCC2)NC1=O [compound 440] (Ac-[dR][Pen]NT[Trp(7-Me)]K(Ac)[Pen][AEF][2Nal(6-OH)][Thp]EN[X17][Sar]-NH2; disulfide 2-7; N-terminus and C-terminus assumed)
9 | 0.01 to 0.1 | < 10 | CC(=O)NCCCC[C@@H]1NC(=O)[C@H](Cc2c[nH]c3c(C)cccc23)NC(=O)[C@H]([C@@H](C)O)NC(=O)[C@H](CC(N)=O)NC(=O)[C@@H](NC(=O)[C@@H](CCCNC(=N)N)NC(C)=O)C(C)(C)SSC(C)(C)[C@@H](C(=O)N[C@@H](Cc2ccc(OCCN)cc2)C(=O)N[C@@H](Cc2ccc3cc(O)ccc3c2)C(=O)NC2(C(=O)N[C@@H](CCC(=O)O)C(=O)N[C@@H](CC(N)=O)C(=O)N[C@@H](Cc3cncc(C(N)=O)c3)C(=O)N(C)CC(N)=O)CCOCC2)NC1=O [compound 441] (Ac-[dR][Pen]NT[Trp(7-Me)]K(Ac)[Pen][AEF][2Nal(6-OH)][Thp]EN[X13][Sar]-NH2; disulfide 2-7; N-terminus and C-terminus assumed)
10 | > 1 | 10 to 100 | CC(=O)NCCCC[C@@H]1NC(=O)[C@H](Cc2c[nH]c3c(C)cccc23)NC(=O)[C@H]([C@@H](C)O)NC(=O)[C@H](CC(N)=O)NC(=O)[C@@H](NC(=O)[C@@H](CCCNC(=N)N)NC(C)=O)C(C)(C)SSC(C)(C)[C@@H](C(=O)N[C@@H](Cc2ccc(OCCN)cc2)C(=O)N[C@@H](Cc2ccc3c(Br)cccc3c2)C(=O)NC2(C(=O)N[C@@H](CCC(=O)O)C(=O)N[C@@H](CC(N)=O)C(=O)NC3(C(N)=O)CCOCC3)CCOCC2)NC1=O [compound 443] (Ac-[dR][Pen]NT[Trp(7-Me)]K(Ac)[Pen][AEF][X8][Thp]EN[Thp]-NH2; disulfide 2-7; N-terminus and C-terminus assumed)

— patent US20240279281A1, “Peptide Inhibitors of Interleukin-23 Receptor” (Janssen Pharmaceutica NV, priority 2023, published 2024)
